{"source": "paper PMC6212790", "note": "Some of the results follow. At the low end of the ranking the order means little.", "data": [{"biological_target": "T1, GST-Rok (full length) (UniProt O34857)", "T1 sequence": "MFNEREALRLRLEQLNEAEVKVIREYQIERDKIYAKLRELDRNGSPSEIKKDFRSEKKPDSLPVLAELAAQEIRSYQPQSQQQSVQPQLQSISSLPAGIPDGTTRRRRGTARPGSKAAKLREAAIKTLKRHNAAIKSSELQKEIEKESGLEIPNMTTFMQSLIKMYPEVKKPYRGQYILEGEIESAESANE", "assay": "protein binding microarray;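 also: rank score from −0.5 (least bound) to 0.5 (best bound)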", "conditions": "Rok is a gene silencer of Bacillus subtilis; high values mean tight binding; most listed sequences are background and not binding sites; double strand, one strand shown", "units": {"binding signal": "E-score"}, "values": [{"sequence": "CAGCATCC", "binding signal": -0.17}, {"sequence": "CTACCCAG", "binding signal": 0.0539}, {"sequence": "AGAAAAGA", "binding signal": 0.262}, {"sequence": "CGCGGTTA", "binding signal": -0.0283}, {"sequence": "ACGCCCCA", "binding signal": -0.346}, {"sequence": "ATCAGACG", "binding signal": 0.076}, {"sequence": "CTAAGCCC", "binding signal": -0.373}, {"sequence": "AGGACAGC", "binding signal": -0.219}, {"sequence": "CCCCGATC", "binding signal": -0.271}, {"sequence": "AGAATTAC", "binding signal": 0.222}, {"sequence": "AGGTAATC", "binding signal": -0.0361}, {"sequence": "GTATGTGA", "binding signal": 0.247}, {"sequence": "ATTGGATG", "binding signal": 0.111}, {"sequence": "AGGTACTA", "binding signal": 0.152}, {"sequence": "TAGTAAGA", "binding signal": 0.306}, {"sequence": "GATTTGCA", "binding signal": -0.0304}, {"sequence": "CAGTGCGA", "binding signal": -0.0684}, {"sequence": "ACACCCCG", "binding signal": -0.197}, {"sequence": "AGCGCTTG", "binding signal": 0.0188}, {"sequence": "CGAATCTA", "binding signal": 0.305}, {"sequence": "ACCTAGCC", "binding signal": 0.0355}, {"sequence": "TACGTCTA", "binding signal": 0.0433}, {"sequence": "CCATGGCC", "binding signal": -0.252}, {"sequence": "AATTATAG", "binding signal": 0.381}, {"sequence": "GGCGTCCA", "binding signal": -0.223}, {"sequence": "ATAGACGC", "binding signal": -0.0267}, {"sequence": "AAACAGGT", "binding signal": 0.0116}, {"sequence": "ACCTCCGC", "binding signal": -0.101}, {"sequence": "ACAGTACA", "binding signal": 0.0817}, {"sequence": "GTCTACAA", "binding signal": 0.11}, {"sequence": "CAACGCGC", "binding signal": -0.108}, {"sequence": "AACATCCA", "binding signal": 0.306}, {"sequence": "CTAACTGA", "binding signal": 0.127}, {"sequence": "ACAGTAGA", "binding signal": 0.305}, {"sequence": "GACTATCA", "binding signal": -0.0777}, {"sequence": "AGCAACTC", "binding signal": 0.000962}, {"sequence": "CTGCTAGA", "binding signal": 0.0802}, {"sequence": "GATATCGC", "binding signal": 0.232}, {"sequence": "CGATGGAG", "binding signal": 0.0372}, {"sequence": "CTGCGGTC", "binding signal": -0.201}, {"sequence": "GAGTCCCC", "binding signal": -0.303}, {"sequence": "AAAGCCCG", "binding signal": -0.297}, {"sequence": "ACACAGAA", "binding signal": 0.193}, {"sequence": "AACCGCAT", "binding signal": -0.0448}, {"sequence": "GAGCCGGC", "binding signal": -0.361}, {"sequence": "GGTGGTGA", "binding signal": 0.0128}, {"sequence": "ATCTGATG", "binding signal": 0.149}, {"sequence": "TGTATTAA", "binding signal": 0.241}, {"sequence": "AGGTTTTC", "binding signal": 0.0454}, {"sequence": "AAGGCCCG", "binding signal": -0.355}, {"sequence": "CTGTTATA", "binding signal": 0.308}, {"sequence": "AGTACTAG", "binding signal": 0.385}, {"sequence": "CGCCAATA", "binding signal": -0.094}, {"sequence": "CCCCTAAC", "binding signal": -0.172}, {"sequence": "AACTCTCC", "binding signal": -0.0705}, {"sequence": "AAGGTACC", "binding signal": 0.235}, {"sequence": "ATGTGTAG", "binding signal": 0.222}, {"sequence": "AAGTATAA", "binding signal": 0.142}, {"sequence": "ATGGGTGC", "binding signal": 0.0432}, {"sequence": "ATTGGTCA", "binding signal": 0.144}, {"sequence": "CCGCCCTC", "binding signal": -0.363}, {"sequence": "CTGTTTCA", "binding signal": -0.0347}, {"sequence": "ATTAAGGA", "binding signal": -0.0162}, {"sequence": "AGTTGAGC", "binding signal": -0.159}, {"sequence": "AGGCTTCC", "binding signal": -0.322}, {"sequence": "TCTTCCCA", "binding signal": -0.0364}, {"sequence": "ACCTCAAA", "binding signal": 0.000394}, {"sequence": "AGCGAAAA", "binding signal": 0.0776}, {"sequence": "CCAGCTAA", "binding signal": 0.0629}, {"sequence": "AATCCTAA", "binding signal": 0.024}, {"sequence": "AAGCAGTC", "binding signal": -0.138}, {"sequence": "GTCACGCA", "binding signal": -0.126}, {"sequence": "ATGCGAAG", "binding signal": 0.129}, {"sequence": "AGATGTTA", "binding signal": 0.172}, {"sequence": "GGCGCCAC", "binding signal": -0.328}, {"sequence": "AGGGGCCC", "binding signal": -0.462}, {"sequence": "CGGGAATC", "binding signal": -0.204}, {"sequence": "GCCTAATA", "binding signal": 0.0372}, {"sequence": "GCCTTTTA", "binding signal": 0.0531}, {"sequence": "ACGGCTTC", "binding signal": -0.102}, {"sequence": "ATCATCGG", "binding signal": -0.0858}, {"sequence": "CGCTCTCC", "binding signal": -0.28}, {"sequence": "ATTCAGCA", "binding signal": 0.213}, {"sequence": "CATCGACG", "binding signal": 0.0155}, {"sequence": "CCAGTGTA", "binding signal": 0.0299}, {"sequence": "AAAGTAGC", "binding signal": 0.223}, {"sequence": "ATTTAGAG", "binding signal": -0.0311}, {"sequence": "GTATTCAA", "binding signal": 0.0317}, {"sequence": "CTGCGGCA", "binding signal": -0.188}, {"sequence": "GCAATTTA", "binding signal": 0.279}, {"sequence": "CCCCTCGA", "binding signal": -0.316}, {"sequence": "GGAATGAC", "binding signal": -0.0154}, {"sequence": "CTTTCTGA", "binding signal": -0.206}, {"sequence": "CTGGAGGA", "binding signal": -0.293}, {"sequence": "ACGGTTAA", "binding signal": -0.0462}, {"sequence": "CGTCCGCC", "binding signal": -0.295}, {"sequence": "GCCGAAAA", "binding signal": 0.103}, {"sequence": "AGAACTCG", "binding signal": -0.115}, {"sequence": "AGACCAAC", "binding signal": -0.293}, {"sequence": "CGAGCCAC", "binding signal": -0.119}, {"sequence": "CCGGATAG", "binding signal": -0.152}, {"sequence": "AGTCGTCC", "binding signal": -0.0515}, {"sequence": "AAATCTCG", "binding signal": 0.144}, {"sequence": "TCATCGAA", "binding signal": -0.0642}, {"sequence": "CCGCCGAG", "binding signal": -0.146}, {"sequence": "CGGAGGTA", "binding signal": -0.126}, {"sequence": "AGTAGGTG", "binding signal": 0.174}, {"sequence": "GCTGCGCC", "binding signal": -0.172}, {"sequence": "AACGCTAT", "binding signal": 0.0873}, {"sequence": "CGTCACTC", "binding signal": -0.0177}, {"sequence": "AGGACAAG", "binding signal": -0.172}, {"sequence": "CGCCATAG", "binding signal": -0.165}, {"sequence": "AGAGCACT", "binding signal": -0.232}, {"sequence": "CTTACGGC", "binding signal": -0.153}, {"sequence": "CGCATCAC", "binding signal": -0.232}, {"sequence": "CTGTTCCA", "binding signal": -0.0439}, {"sequence": "AGATTGGG", "binding signal": -0.0439}, {"sequence": "AGGGAACT", "binding signal": -0.0535}, {"sequence": "AGACAGAG", "binding signal": 0.0255}, {"sequence": "GCGACACA", "binding signal": -0.0486}, {"sequence": "ACATAGTG", "binding signal": 0.0542}, {"sequence": "GTTGAATA", "binding signal": 0.0162}, {"sequence": "AAAAGCCG", "binding signal": 0.105}, {"sequence": "GCTCGCCA", "binding signal": -0.108}, {"sequence": "GATTAGAC", "binding signal": -0.0922}, {"sequence": "AAAACCTC", "binding signal": -0.00614}, {"sequence": "GACCGCCC", "binding signal": -0.384}, {"sequence": "CATAATTA", "binding signal": 0.362}, {"sequence": "AGTCAATG", "binding signal": 0.0519}, {"sequence": "AGAGTACA", "binding signal": 0.142}, {"sequence": "ATTCATAA", "binding signal": 0.239}, {"sequence": "CCGTAGCA", "binding signal": -0.00236}, {"sequence": "GGTCGGAC", "binding signal": -0.126}, {"sequence": "CCCTAGTA", "binding signal": 0.252}, {"sequence": "CTGCTTAC", "binding signal": 0.0646}, {"sequence": "ATAAGGGG", "binding signal": -0.275}, {"sequence": "ACGATGAC", "binding signal": -0.16}, {"sequence": "AAATCGTT", "binding signal": 0.0442}, {"sequence": "GCGGCGAC", "binding signal": -0.216}, {"sequence": "GGGGCTAC", "binding signal": -0.226}, {"sequence": "ACCCACAA", "binding signal": -0.0366}, {"sequence": "AGACTCAT", "binding signal": -0.207}, {"sequence": "CTAATGAG", "binding signal": -0.0834}, {"sequence": "GGGAAAAA", "binding signal": -0.0456}, {"sequence": "CGAGGGCC", "binding signal": -0.381}, {"sequence": "TTGAACAA", "binding signal": 0.0376}, {"sequence": "AGGTTCTA", "binding signal": 0.134}, {"sequence": "GTAGCTAC", "binding signal": 0.436}, {"sequence": "CTTACACA", "binding signal": 0.068}, {"sequence": "AAGCTCCA", "binding signal": -0.0271}, {"sequence": "TACGGCTA", "binding signal": 0.15}, {"sequence": "CGGTGCAC", "binding signal": -0.287}, {"sequence": "CGACGACG", "binding signal": -0.00922}, {"sequence": "TACAAGGA", "binding signal": -0.0186}, {"sequence": "CCCGGCGA", "binding signal": -0.269}, {"sequence": "AATATCGA", "binding signal": 0.29}, {"sequence": "GATAGCGA", "binding signal": 0.106}, {"sequence": "GCGTTTGA", "binding signal": -0.0776}, {"sequence": "CGACCACC", "binding signal": -0.23}, {"sequence": "ACCCTTCG", "binding signal": -0.264}, {"sequence": "ATCTGTCA", "binding signal": -0.194}, {"sequence": "GAGCGAGA", "binding signal": -0.17}, {"sequence": "CATCGTGG", "binding signal": -0.16}, {"sequence": "GAACGACA", "binding signal": 0.108}, {"sequence": "CGCCCGGC", "binding signal": -0.448}, {"sequence": "CTCTTTCA", "binding signal": -0.0325}, {"sequence": "ACCGGCCC", "binding signal": -0.212}, {"sequence": "CATCCCTC", "binding signal": -0.341}, {"sequence": "CGGGCACG", "binding signal": -0.221}, {"sequence": "TACATTAA", "binding signal": 0.26}, {"sequence": "TATCTCGA", "binding signal": 0.209}, {"sequence": "CAAGAGCC", "binding signal": -0.306}]}]}
